The list shows a part of the results. At the low end of the ranking, values are background and their order means little.

The test system of the experiment is T1, GST-NbGlk1(82-244).
T1 sequence: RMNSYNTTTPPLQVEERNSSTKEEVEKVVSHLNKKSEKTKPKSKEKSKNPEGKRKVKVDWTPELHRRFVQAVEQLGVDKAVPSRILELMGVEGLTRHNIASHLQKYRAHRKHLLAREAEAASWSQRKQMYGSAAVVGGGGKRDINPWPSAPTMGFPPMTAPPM
Description: protein-binding microarray.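 Further: rank-based score ranging −0.5 to +0.5 with E above 0.45 taken as significant binding.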 As to conditions: NbGlk1 is a Golden2-like transcription factor of Nicotiana benthamiana; high values mean tight binding; most listed sequences are background and not binding sites; double strand, one strand shown.
As to AGCAACGA, the binding signal was -0.116 E-score. In the case of ACATTGCC, the binding signal is -0.054 E-score. The figure for ACGAAGCC is -0.138 E-score; for AATCAGGA it is 0.394 E-score. With CAAAAATG, the binding signal amounted to 0.0155 E-score. The figure for CAGAACGG is 0.0192 E-score; for ACAGTTCT it is -0.124 E-score; for ATACGCTC it is 0.161 E-score. The sequence AGGCGTAG gave a binding signal of -0.325 E-score. Sequence AGAGCTCA showed a binding signal of -0.217 E-score.

On to AAGTCATT, for which the binding signal was -0.0303 E-score. AGGGACGG yielded a binding signal of -0.169 E-score. The figure for ACGGTCGG is -0.159 E-score; for ATTCGCTC it is 0.231 E-score. Consider ATGAATCG, for which the binding signal came out at 0.103 E-score.

As to ACGGATTG, the binding signal came to 0.277 E-score. The figure for ATAAAGTA is 0.115 E-score; for ATTATAAC it is 0.0834 E-score.

In the case of AGATACCA, the binding signal was 0.204 E-score. The figure for ACGCGCAC is -0.0139 E-score; for AGTCTTTA it is 0.036 E-score. Take CAACTTAC: the binding signal is -0.00594 E-score. With AAACTATC, the binding signal was 0.0464 E-score. Take ATCAAGCC: the binding signal was -0.0609 E-score. The figure for AGCGTCTA is -0.0432 E-score. The figure for ACGTACCC is -0.0848 E-score; for CAACTGAC it is -0.103 E-score. Regarding AAAATGGA, the binding signal is -0.0966 E-score. As to AGTTAAAC, the binding signal is -0.0875 E-score.

AGAATAGC came in with a binding signal of -0.148 E-score. For the sequence CACTTAGG, the binding signal was -0.108 E-score. AGCGCAGC had a binding signal of -0.307 E-score. The figure for AGACGGGC is -0.191 E-score; for ACGTGCCC it is -0.0766 E-score. The figure for CACGCCTA is -0.0916 E-score. The figure for AGCACTAA is -0.139 E-score. Regarding AGATGTAT, the binding signal was 0.121 E-score. The figure for ACTCGTGC is -0.127 E-score; for ATTGATGG it is -0.188 E-score; for AAAGCGGG it is -0.0831 E-score. CACTAACC had a binding signal of -0.178 E-score. The sequence ACCGAAAT had a binding signal of 0.338 E-score.

As for CACTCTCC, the binding signal is -0.0783 E-score. As for AACCTAAG, the binding signal is -0.17 E-score. The figure for AATTAGGC is 0.126 E-score; for ACCGGGCT it is -0.279 E-score. In turn, ACTTGATA yielded a binding signal of 0.132 E-score. Take AGGGCTAA: the binding signal is -0.183 E-score.

With CAAGTGAA, the binding signal was -0.119 E-score. The figure for AAGCGGAT is 0.227 E-score. As for AACGCATC, the binding signal was -0.0345 E-score. The figure for AACAATAA is 0.137 E-score; for AGCGGTGA it is -0.125 E-score.

In turn, AGTCCCCA showed a binding signal of -0.247 E-score.

As to AGGGAAAG, the binding signal was -0.0816 E-score. AAGACGTA returned a binding signal of -0.0953 E-score. The figure for AATTGTAG is 0.0583 E-score; for AGCTCCAG it is -0.264 E-score; for ATTGAGCA it is -0.0458 E-score. CACGGTTA showed a binding signal of -0.0224 E-score.

On to ATGCGTAA, for which the binding signal turned out to be 0.21 E-score.

With ACTTCTTG, the binding signal is -0.0327 E-score. The figure for ACTTTGAA is 0.022 E-score.

The sequence ACTTGAAC registered a binding signal of 0.0737 E-score. The figure for ATTCTCGA is 0.308 E-score; for AATATAGG it is 0.145 E-score. The figure for CAGATCGG is 0.215 E-score. AGAGTTGC displayed a binding signal of -0.0483 E-score.

In turn, AAGTGATG displayed a binding signal of 0.154 E-score.

For the sequence AAGCAATC, the binding signal is 0.386 E-score.

The sequence ATCTGACG came in with a binding signal of 0.181 E-score. The figure for CAGACAAA is 0.01 E-score.

In turn, ACTCCGTG returned a binding signal of -0.194 E-score. The sequence AATGTAAT showed a binding signal of 0.353 E-score. The figure for ATGGTTAG is -0.0381 E-score; for ACGAGTTA it is -0.0647 E-score. Sequence ACAGGAGC had a binding signal of -0.102 E-score. The figure for AATGTACG is -0.0754 E-score; for AGGATCGG it is 0.086 E-score; for ACTGAGCC it is -0.289 E-score. ACAGTAAG had a binding signal of 0.0152 E-score. AGGAGCAT yielded a binding signal of -0.231 E-score. The sequence ATCTAAGG had a binding signal of 0.143 E-score. In the case of ATTAAAGC, the binding signal worked out at 0.00237 E-score. The figure for ACTGGTCT is -0.205 E-score; for AACACTTG it is -0.0396 E-score.

AATCCTGG showed a binding signal of 0.363 E-score. The figure for AGGTATAA is -0.0275 E-score; for ATAACCTA it is -0.0859 E-score. The figure for ATGTATGA is -0.042 E-score; for AATGTGGT it is 0.0152 E-score. The figure for ACGTGCCT is -0.292 E-score. For ACGAGAAT, the binding signal turned out to be 0.31 E-score. The figure for AAAGTCTG is -0.0811 E-score; for ATTATTTG it is 0.123 E-score. Regarding ACTAGGGG, the binding signal was -0.124 E-score. Take CAATCTGG: the binding signal came to 0.414 E-score. AGTGACTC gave a binding signal of -0.23 E-score. CACTCCAA: the binding signal is -0.123 E-score. With AGCAGCCG, the binding signal was -0.256 E-score. In turn, AATTGAAA returned a binding signal of 0.226 E-score.

Sequence ATGCGTAG returned a binding signal of -0.0731 E-score. The figure for AATTAGAC is -0.0551 E-score; for AACGTCGT it is 0.0186 E-score; for CACCCGAC it is -0.276 E-score.

Consider AGCCAACC, for which the binding signal was -0.16 E-score. For the sequence ATGTTCTG, the binding signal turned out to be 0.0456 E-score. Regarding ACATGTAC, the binding signal is -0.0135 E-score. ACGGCAAT yielded a binding signal of 0.171 E-score.

(Values after PMC5836133.)
